Assay results as given in PubChem BioAssay AID1508642 (National Center for Advancing Translational Sciences (NCATS), 2021).
In all, about 43,000 compounds went through this assay and about 200 (0.47%) were called active. Not shown: some 12% with an inconclusive outcome. Calls come from the whole dose curve; as a rule, active = well fitted cell-killing curve with a large enough effect; inconclusive = small, poorly fitted or top-dose-only effect, or effect the other way; inactive = flat fitted curve, though single readings scatter. The list shows a part of the results.

test: Cell viability qHTS assay in S16 Pmp22-F2sN cells; conditions: S16 Pmp22-F2sN Schwann cells viability, CellTiter-Glo, 24 h; series mostly up to 57.5 µM; activity change, negative = cytotoxicity: at the top concentration; note: nearly all actives have a fitted effect of over 65% in size
In short: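 S16 Pmp22-F2sN Schwann cells (500-1,000/well) in phenol-red-free DMEM with 10% FBS received 23 nL compound by pin tool for 24 h at 37 °C. Viability was then read as CellTiter-Glo luminescence after 15 min at room temperature.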
% is set by controls: 0 for no effect and ±100 for the full control effect.

Row | SMILES | activity change, negative = cytotoxicity
1 | COc1ccc(N(CC(=O)N2CCN(c3cccc(OC)c3)CC2)S(=O)(=O)c2c(C)noc2C)cc1 | inactive: -24.3%
2 | O=C(Cn1c(=O)ccc2cc(S(=O)(=O)N3CCCC3)ccc21)NCc1ccc(F)cc1 | inactive: 2.16%
3 | CCOc1ccc(NC(=O)Cn2c(=O)n(Cc3nc(-c4ccccc4)no3)c(=O)c3ccccc32)cc1 | inactive: -1.64%
4 | CCOC(=O)C1=C(CS(=O)(=O)c2ccc(C)c(C)c2)NC(=O)NC1c1ccccc1OCC (centres undefined) | inactive: -12.5%
5 | CCc1cccc(NC(=O)c2coc(=O)c3ccccc23)c1 | inactive: -4.94%
6 | COC(=O)c1ccc(Cl)cc1NC(=O)N1CCC(CN2CCC(C)CC2)CC1 | inactive: 1.34%
7 | COc1cccc(NC(=O)c2oc3ccccc3c2NC(=O)Cc2cccc(C)c2)c1 | inactive: 8.25%
8 | Cc1cn2c(=O)cc(COC(=O)C(C)Oc3ccccc3)nc2s1 (centres undefined) | inactive: 0.87%
9 | O=C(COc1ccc(Br)cc1)Nc1cccc2cccnc12 | inactive: 3.12%
10 | COC(=O)CN1C(=O)C(C)(C)c2cc(S(=O)(=O)Nc3ccc(C(C)C)cc3)ccc21 | inactive: -0.0744%
11 | Cc1ccccc1OCC(=O)N(Cc1ccc(C(C)C)cc1)C1CCS(=O)(=O)C1 (centres undefined) | inactive: 0.817%
12 | CCc1ccc(-n2nc(CO)c(C(=O)NCCCCc3ccccc3)n2)cc1 | inactive: -1.46%
13 | O=C(NCc1ccc(Cl)cc1)c1cc(-c2ccc(F)cc2)on1 | inactive: 18.2%
14 | COc1ccc(N2CC(NC(=O)c3ccc(S(=O)(=O)N4CCOCC4)cc3)CC2=O)cc1 (centres undefined) | inactive: 12.4%
15 | COc1ccccc1NC(=O)C1CCN(c2ncnc3c2nc2n3CCCCC2)CC1 | inactive: -11.8%
16 | COc1cc2c(cc1OC)C(COc1ccc(C(C)C)cc1)N(C(=O)COc1ccccc1)CC2 (centres undefined) | inactive: -25.5%
17 | CCS(=O)(=O)c1nc(S(=O)(=O)c2ccc(C)cc2)c(NCc2ccccc2Cl)s1 | inactive: -4.86%
18 | CCOc1ccc(C(=O)c2cn(CC(=O)Nc3ccc(C)c(C)c3)c3ccc(OCC)cc3c2=O)cc1 | inactive: 1.9%
19 | CCOc1ccc(Nc2nc(Nc3ccc(OCC)cc3)nc(N3CCOCC3)n2)cc1 | inactive: 4.4%
20 | COc1ccc(OCC(=O)N2CCN(C(=O)c3ccc(OC)cc3)CC2)cc1 | inactive: 1.95%
21 | O=C(O)Cn1nc(N2CCN(c3ccccc3)CC2)ccc1=O | inactive: 5.34%
22 | CCOc1ccc(CCNC(=O)c2sc3nc4n(c(=O)c3c2C)CCCC4)cc1 | inactive: -3.29%

Row | SMILES | activity change, negative = cytotoxicity
23 | Cc1nn2c(=O)cc(COC(=O)COc3ccccc3C)nc2s1 | inactive: -5.75%
24 | O=C(O)C1=CC(c2ccc(Br)cc2)n2ncnc2N1 (centres undefined) | inactive: 19.4%
25 | CCOC(=O)Cn1cnc2c(cnn2-c2ccc(C)c(C)c2)c1=O | inactive: 2.95%
26 | Cc1ccccc1C(=O)NCc1ccc2c(c1)CCN2C(=O)c1ccc(F)cc1 | inactive: 7.21%
27 | CC1CCC(NC(=O)CCc2cn(Cc3ccc(F)cc3)c3ccccc23)CC1 (centres undefined) | inactive: 0.631%
28 | COc1ccccc1CNC(=O)c1cc(-c2ccccc2)n[nH]1 | inactive: -14.1%
29 | Cn1c2ccc(F)cc2c2nnc(SCCN3CCCCC3)nc21 | inactive: 9.32%
30 | CC(C)NC(=O)c1sc2ncccc2c1-n1cccc1 | inactive: -1.79%
31 | CCc1ccc(S(=O)(=O)c2cnc(SCC(=O)Nc3ccc(OC)cc3OC)[nH]c2=O)cc1 | inactive: 1.89%
32 | Cc1ccc2nc(NC(=O)CSc3ncc(C(=O)Nc4ccccc4)c(=O)n3C)sc2c1 | inactive: 9.71%
33 | CCCCC(=O)Nc1ccc(OCc2cc(=O)n3ccc(C)cc3n2)cc1 | inactive: 15.7%
34 | CCCCN(CCCC)c1nc(-c2ccccc2)nc2ccccc12 | inactive: -2.97%
35 | COc1cc(C2CC(=O)Nc3cc4c(cc32)OCCO4)cc(OC)c1O (centres undefined) | inactive: 1.29%
36 | COc1ccc(NC(=O)C2CCCN2S(=O)(=O)c2ccc3c(c2)CCCC(=O)N3)cc1Cl (centres undefined) | inactive: 24.5%
37 | Cc1oc(-c2cccc(Cl)c2)nc1CSCC(=O)O | inactive: -2.33%
38 | CCC(=O)Nc1ccc(C)cc1-c1nc2ccccc2n(Cc2ccccc2)c1=O | inactive: 21.4%
39 | CCN(C(=O)c1cc2c(Cl)nc3ccc(C)cc3c2s1)c1cc(OC)ccc1OC | inactive: -14.4%
40 | CC1(c2ccccc2)CC(C)(C)N(C(=O)c2ccccc2Cl)c2ccccc21 (centres undefined) | inactive: -4.59%
41 | Cc1cccc(-c2nnc(SCCC(=O)O)o2)c1 | inactive: -6.26%
42 | CCOC(=O)c1[nH]c(C)c(C(=O)NCc2ccc(F)cc2)c1C | inactive: -4.89%
43 | COc1cc(CNCCSc2nnnn2C)ccc1OCc1c(F)cccc1Cl | inactive: -10.8%
44 | CC(C)c1ccc(OCC(=O)Nc2cc(-c3nc4ncccc4o3)ccc2Cl)cc1 | inactive: 21%

Row | SMILES | activity change, negative = cytotoxicity
45 | O=[N+]([O-])c1ccc(C(c2sc3nc(-c4ccco4)nn3c2O)N2CCC3(CC2)OCCO3)cc1 (centres undefined) | inactive: 6.11%
46 | COc1ccccc1CNC(=O)C(C)n1c(=O)cc(C(F)(F)F)c2c(C)nn(C)c21 (centres undefined) | inactive: -10.1%
47 | CCOc1ccc(CCNC(=O)c2cnc3c(-c4ccccc4)c(C)nn3c2C)cc1OCC | inactive: -12.7%
48 | Cc1cccc(NC(=O)CN2C(=O)CCc3ccccc32)c1C | inactive: 4.96%
49 | COc1ccc(N2CCN(c3oc(/C=C/c4cccc(OC)c4)nc3C#N)CC2)cc1 | inactive: 0.224%
50 | CCc1ccc(CNC(=O)C2CCN(c3nnc(-n4c(C)ccc4C)s3)CC2)cc1 | inactive: 13.2%
51 | Cc1ccc(OCC(=O)Nc2ccc(-c3nc4ccc(C)cc4o3)cc2)cc1 | inactive: 5.95%
52 | CCOc1ccc(C(=O)Nc2ccc3nc(SCC(=O)N4CCOCC4)sc3c2)cc1 | inactive: 2.51%
53 | CCN1CCN(C(=O)c2ccc3c(c2)N(Cc2cc(C)ccc2C)C(=O)c2ccccc2S3(=O)=O)CC1 | inactive: 5.57%
54 | N#Cc1ccccc1NC(=O)C(=O)NCC(c1cccnc1)N1CCN(c2ccccc2)CC1 (centres undefined) | inactive: -9.52%
55 | Cc1cccc(C(=O)Nc2cccc(C(=O)OCc3cc(=O)n4nc(C5CC5)sc4n3)c2)c1 | inactive: 6.18%
56 | Cc1cc(NC(=O)CN(c2cccc(C)c2C)S(=O)(=O)c2ccccc2)ccc1Br | inactive: -1.73%
57 | O=C(Nc1ccc(F)cc1F)C1CCCN1S(=O)(=O)c1cccc2nsnc12 (centres undefined) | inactive: 4.72%
58 | CCCOc1ccc(CNC(=O)C2CCN(c3nn4c(=O)cc(C)nc4s3)CC2)cc1 | inactive: 6.86%
59 | CCOc1ccccc1Nc1ccc2cc(S(=O)(=O)N3CCCCC3)ccc2n1 | inactive: -26.1%
60 | CCOC(=O)c1c(C)oc2nc(C)nc(NCCc3ccc(S(N)(=O)=O)cc3)c12 | inactive: -19.9%
61 | O=C(NCCc1ccccc1)c1cnc2sc(N3CCOCC3)nn2c1=O | inactive: -2.65%
62 | CCCSCCCNC(=O)CN1C(=O)COc2ccc(S(=O)(=O)N3CCCCCC3)cc21 | inactive: 10.5%
63 | CCc1cccc(C)c1NS(=O)(=O)c1ccc(-n2cccn2)cc1 | inactive: 3%
64 | CC(=O)N1CCCc2cc(S(=O)(=O)NCc3ccc(OC(C)C)cc3)ccc21 | inactive: -28.8%
